The chains are these.
T1: RBFOX1 RRM RbFoxmut (Fox-RRM*) (Homo sapiens, UniProt Q9NWB1 109-208, R118D;E147R;N151S;E152T)
T1 sequence: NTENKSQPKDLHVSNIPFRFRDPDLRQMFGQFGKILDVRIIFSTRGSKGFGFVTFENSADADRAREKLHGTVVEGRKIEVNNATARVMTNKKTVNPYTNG

B1: CGAACUG (DNA:RNA)
RNA: GGGAGACCGGAAUUCAGAUUGUCCCGAACUGUUAAAUCCCGUCGUAGCCACCA
DNA 1: CAATCTGAATTCCGGTCTCCC
DNA 2: TGGTGGCTACGACGGGATT
B2: GCUGAAA (DNA:RNA)
RNA: GGGAGACCGGAAUUCAGAUUGUCCGCUGAAAUUAAAUCCCGUCGUAGCCACCA
DNA 1: CAATCTGAATTCCGGTCTCCC
DNA 2: TGGTGGCTACGACGGGATT
B3: GCUAAAU (DNA:RNA)
RNA: B2 RNA with G28A, A31U
DNA 1: CAATCTGAATTCCGGTCTCCC
DNA 2: TGGTGGCTACGACGGGATT
B4: UAUCAAA (DNA:RNA)
RNA: B2 RNA with G25U, C26A, G28C
DNA 1: CAATCTGAATTCCGGTCTCCC
DNA 2: TGGTGGCTACGACGGGATT
B5: GAACGCC (DNA:RNA)
RNA: B1 RNA with C25G, G26A, A28C, C29G, U30C, G31C
DNA 1: CAATCTGAATTCCGGTCTCCC
DNA 2: TGGTGGCTACGACGGGATT
B6: AGUGGCG (DNA:RNA)
RNA: B1 RNA with C25A, A27U, A28G, C29G, U30C
DNA 1: CAATCTGAATTCCGGTCTCCC
DNA 2: TGGTGGCTACGACGGGATT
B7: GGCAUUU (DNA:RNA)
RNA: B1 RNA with C25G, A27C, C29U, G31U
DNA 1: CAATCTGAATTCCGGTCTCCC
DNA 2: TGGTGGCTACGACGGGATT
B8: UCGUCUG (DNA:RNA)
RNA: B1 RNA with C25U, G26C, A27G, A28U
DNA 1: CAATCTGAATTCCGGTCTCCC
DNA 2: TGGTGGCTACGACGGGATT
B9: CGAACUU (DNA:RNA)
RNA: B1 RNA with G31U
DNA 1: CAATCTGAATTCCGGTCTCCC
DNA 2: TGGTGGCTACGACGGGATT
B10: CGACUAU (DNA:RNA)
RNA: B1 RNA with A28C, C29U, U30A, G31U
DNA 1: CAATCTGAATTCCGGTCTCCC
DNA 2: TGGTGGCTACGACGGGATT
B11: ACCCAGG (DNA:RNA)
RNA: B2 RNA with G25A, U27C, G28C, A30G, A31G
DNA 1: CAATCTGAATTCCGGTCTCCC
DNA 2: TGGTGGCTACGACGGGATT
B12: CAGAGUU (DNA:RNA)
RNA: B1 RNA with G26A, A27G, C29G, G31U
DNA 1: CAATCTGAATTCCGGTCTCCC
DNA 2: TGGTGGCTACGACGGGATT
B13: UCCGUAG (DNA:RNA)
RNA: B2 RNA with G25U, U27C, A29U, A31G
DNA 1: CAATCTGAATTCCGGTCTCCC
DNA 2: TGGTGGCTACGACGGGATT
B14: CCCCACA (DNA:RNA)
RNA: B2 RNA with G25C, U27C, G28C, A30C
DNA 1: CAATCTGAATTCCGGTCTCCC
DNA 2: TGGTGGCTACGACGGGATT
B15: GAUGCAG (DNA:RNA)
RNA: B2 RNA with C26A, A29C, A31G
DNA 1: CAATCTGAATTCCGGTCTCCC
DNA 2: TGGTGGCTACGACGGGATT
B16: UCGCCGG (DNA:RNA)
RNA: B1 RNA with C25U, G26C, A27G, A28C, U30G
DNA 1: CAATCTGAATTCCGGTCTCCC
DNA 2: TGGTGGCTACGACGGGATT
B17: GCGAGUG (DNA:RNA)
RNA: B1 RNA with C25G, G26C, A27G, C29G
DNA 1: CAATCTGAATTCCGGTCTCCC
DNA 2: TGGTGGCTACGACGGGATT
B18: UUAGGCC (DNA:RNA)
RNA: B1 RNA with C25U, G26U, A28G, C29G, U30C, G31C
DNA 1: CAATCTGAATTCCGGTCTCCC
DNA 2: TGGTGGCTACGACGGGATT
B19: GCUAUCC (DNA:RNA)
RNA: B2 RNA with G28A, A29U, A30C, A31C
DNA 1: CAATCTGAATTCCGGTCTCCC
DNA 2: TGGTGGCTACGACGGGATT
B20: CGAGUCG (DNA:RNA)
RNA: B1 RNA with A28G, C29U, U30C
DNA 1: CAATCTGAATTCCGGTCTCCC
DNA 2: TGGTGGCTACGACGGGATT
B21: CCCUUAG (DNA:RNA)
RNA: B1 RNA with G26C, A27C, A28U, C29U, U30A
DNA 1: CAATCTGAATTCCGGTCTCCC
DNA 2: TGGTGGCTACGACGGGATT
B22: GCAACAA (DNA:RNA)
RNA: B2 RNA with U27A, G28A, A29C
DNA 1: CAATCTGAATTCCGGTCTCCC
DNA 2: TGGTGGCTACGACGGGATT
B23: CGGGAUA (DNA:RNA)
RNA: B1 RNA with A27G, A28G, C29A, G31A
DNA 1: CAATCTGAATTCCGGTCTCCC
DNA 2: TGGTGGCTACGACGGGATT
B24: ACGCCCA (DNA:RNA)
RNA: B2 RNA with G25A, U27G, G28C, A29C, A30C
DNA 1: CAATCTGAATTCCGGTCTCCC
DNA 2: TGGTGGCTACGACGGGATT
B25: ACCGACU (DNA:RNA)
RNA: B2 RNA with G25A, U27C, A30C, A31U
DNA 1: CAATCTGAATTCCGGTCTCCC
DNA 2: TGGTGGCTACGACGGGATT
B26: GAUCUUU (DNA:RNA)
RNA: B2 RNA with C26A, G28C, A29U, A30U, A31U
DNA 1: CAATCTGAATTCCGGTCTCCC
DNA 2: TGGTGGCTACGACGGGATT
B27: CCUACUG (DNA:RNA)
RNA: B1 RNA with G26C, A27U
DNA 1: CAATCTGAATTCCGGTCTCCC
DNA 2: TGGTGGCTACGACGGGATT
B28: GCCAGGC (DNA:RNA)
RNA: B2 RNA with U27C, G28A, A29G, A30G, A31C
DNA 1: CAATCTGAATTCCGGTCTCCC
DNA 2: TGGTGGCTACGACGGGATT
B29: UCGUCCU (DNA:RNA)
RNA: B1 RNA with C25U, G26C, A27G, A28U, U30C, G31U
DNA 1: CAATCTGAATTCCGGTCTCCC
DNA 2: TGGTGGCTACGACGGGATT
B30: CAUUGGC (DNA:RNA)
RNA: B1 RNA with G26A, A27U, A28U, C29G, U30G, G31C
DNA 1: CAATCTGAATTCCGGTCTCCC
DNA 2: TGGTGGCTACGACGGGATT
B31: UCUAUGG (DNA:RNA)
RNA: B1 RNA with C25U, G26C, A27U, C29U, U30G
DNA 1: CAATCTGAATTCCGGTCTCCC
DNA 2: TGGTGGCTACGACGGGATT

Positions count from the first letter of the chain named. The list shows a part of the results.

This test deals with T1, RBFOX1 RRM RbFoxmut (Fox-RRM*). The test is described as follows: EMSA; HiTS-Eq, 1 nM pool, 10 min; buffer printed only for the single-RNA assays: 10 mM Tris pH 7.5, 150 mM NaCl, 3.4 mM EDTA, 0.001% NP-40, 30 C. As to conditions: tags: His6 N-terminal (pET28a); label: 5' 32P. A digest of the protocol: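 A pool of RNA with 7 randomized nucleotides, 5′-radiolabelled and with DNA-annealed flanks, was equilibrated at 1 nM for 10 min in 50 µL with purified RbFox RRM, wild type or mutant, across increasing protein concentrations. Free RNA was separated by 8% native PAGE, excised, reverse-transcribed, barcoded by PCR and sequenced. Relative association constants were obtained from read-count changes of each RNA species versus the control reaction and normalised to the cognate motif.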
Take B1: the binding signal is 0.0687 KA relative to UGCAUGU.
With B2, the binding signal is 0.0635 KA relative to UGCAUGU.
Under B3 stands 0.0892 KA relative to UGCAUGU; under B4, 0.0378 KA relative to UGCAUGU.
For B5, the binding signal is 0.0859 KA relative to UGCAUGU.
For the molecule B6, the binding signal was 0.161 KA relative to UGCAUGU.
For the molecule B7, the binding signal is 0.0782 KA relative to UGCAUGU.
For the molecule B8, the binding signal was 0.151 KA relative to UGCAUGU.
With B9, the binding signal is 0.0774 KA relative to UGCAUGU.
With B10, the binding signal was 0.0706 KA relative to UGCAUGU.
For the molecule B11, the binding signal is 0.102 KA relative to UGCAUGU.
Consider B12, for which the binding signal was 0.103 KA relative to UGCAUGU.
For B13, the binding signal is 0.102 KA relative to UGCAUGU.
Consider B14, for which the binding signal is 0.109 KA relative to UGCAUGU.
As for B15, the binding signal is 0.109 KA relative to UGCAUGU.
Regarding B16, the binding signal was 0.0822 KA relative to UGCAUGU.
Take B17: the binding signal was 0.184 KA relative to UGCAUGU.
Turning to B18, the binding signal is 0.208 KA relative to UGCAUGU.
Consider B19, for which the binding signal was 0.0945 KA relative to UGCAUGU.
As for B20, the binding signal is 0.105 KA relative to UGCAUGU.
B21: the binding signal was 0.13 KA relative to UGCAUGU.
Turning to B22, the binding signal is 0.0734 KA relative to UGCAUGU.
Regarding B23, the binding signal is 0.119 KA relative to UGCAUGU.
Under B24 stands 0.0696 KA relative to UGCAUGU; under B25, 0.0544 KA relative to UGCAUGU; under B26, 0.0548 KA relative to UGCAUGU.
Take B27: the binding signal is 0.126 KA relative to UGCAUGU.
Regarding B28, the binding signal is 0.0762 KA relative to UGCAUGU.
Take B29: the binding signal is 0.0951 KA relative to UGCAUGU.
For the molecule B30, the binding signal is 0.134 KA relative to UGCAUGU.
Turning to B31, the binding signal is 0.121 KA relative to UGCAUGU.

Source of the values: paper PMC9911399, “Two distinct binding modes provide the RNA-binding protein RbFox with extraordinary sequence specificity”.
